The text below walks through data of PubChem BioAssay AID463173 (ICCB-Longwood Screening Facility, Harvard Medical School, 2010).

Structures are written as SMILES. About 1,700 (3.3%) of roughly 52,000 compounds were called active. Rule as the data show it: active = survival mostly below about 52% (no sharp cut-off); inactive = mostly above about 56%. Some of the results follow.

This assay concerns Wild type. Description: S. aureus survival, RN4220 and DeltatarO strains – OD600, teichoic acid synthesis inhibitors, primary screen (AID 463173). The following applies: S. aureus RN4220 wild type/DeltatarO growth, OD600, 18 h, stronger effect = lower value, screened at 18.75 µg/mL (by protocol).
Consider `CCCS(=O)(=O)N1CCC(N2CCN(Cc3ccc(F)cc3)C(=O)C2=O)CC1`, for which the survival is inactive: 72%.

Regarding `Cc1cc(O)c2c(C)c(CC(=O)N3CCCCC3)c(=O)oc2c1`, the survival was inactive: 90%.

In the case of `COc1ccc(-c2noc(-c3nnn(-c4ccc(C(C)C)cc4)c3C)n2)cc1OC`, the survival was inactive: 76%.

`Cc1ccc(-c2ccc(C#N)c(=O)n2CC(=O)N2CCNC(=O)C2(C)C)cc1`: the survival was inactive: 117%.

As to `O=C(Nc1ccccc1)c1ccc2c(O)c(S(=O)(=O)c3ccc(Cl)cc3)c(=O)[nH]c2c1`, the survival was inactive: 96%.

As for `O=C(CSc1ncccn1)n1c2c(c3ccccc31)CCCC2`, the survival is inactive: 112%.

`CCOc1ccccc1C1C(C(=O)Nc2ccccc2)=C(C)Nc2c(C(=O)Nc3ccc(F)cc3)cnn21` (stereo not given): the survival was inactive: 77%.

For `CCn1cc(C(=O)N2CCN(c3ccc(OC)cc3)CC2)c2cc(OC)c(OC)cc2c1=O`, the survival was inactive: 69%.

Regarding `Cc1ccccc1Cn1c2ccccc2c2cnn(CC(=O)N3CCC(C)CC3)c(=O)c21`, the survival is active: 12%.

Consider `Cc1ccc(S(=O)(=O)NCC(Nc2cccc(Cl)c2)c2ccccc2)cc1` (stereo not given), for which the survival is inactive: 68%.

As for `CCOc1ccc(NC(=O)C2CC(=O)NC(=Nc3ccccc3)S2)cc1` (stereo not given), the survival is inactive: 104%.

On to `CCOc1ccc(-c2cccc(NS(=O)(=O)c3ccccc3C(F)(F)F)c2)nn1`, for which the survival was inactive: 90%.

Turning to `O=S(=O)(c1ccc2nc(Nc3cccc(F)c3)ccc2c1)N1CCCC1`, the survival is inactive: 75%.

Turning to `CCc1ccc(NC(=O)N2CCC(N3CCN(Cc4ccc(C)cc4)C(=O)C3=O)CC2)cc1`, the survival was inactive: 135%.

As to `CCn1c(CNC(=O)C(OC)c2ccccc2)nnc1SC` (stereo not given), the survival was inactive: 125%.

In the case of `CCn1c(C(=O)N2CCCC(C(=O)N3CCN(c4ccccc4)CC3)C2)cc2sccc21` (stereo not given), the survival was inactive: 82%.

Regarding `COc1ccc(-c2cc3nccc(-c4cc(Cl)c(C)cc4O)n3n2)cc1`, the survival is inactive: 82%.

Turning to `CC(C)(C#N)Nc1ccccc1`, the survival was inactive: 105%.

With `Cc1nn(CC(=O)NCCc2ccccc2)c(=O)c2c1sc1ccccc12`, the survival is inactive: 84%.

In the case of `Clc1nc(Cl)nc(N2CCCCC2)n1`, the survival was inactive: 101%.

With `CCOc1ccccc1NC(=O)CSC1=Nc2ccccc2C2=NC(CC(=O)NCc3ccc4c(c3)OCO4)C(=O)N12` (stereo not given), the survival is inactive: 123%.

Consider `O=c1cc(-c2ccccc2)n2c(SCc3ccc(Br)cc3)nnc2[nH]1`, for which the survival is inactive: 126%.

On to `COc1ccccc1CN1C(=O)C(=O)c2cccc(C)c21`, for which the survival is inactive: 107%.

On to `CCN(C(=O)Cc1ccccc1OC)c1nnc(-c2ccncc2)s1`, for which the survival is inactive: 111%.

Regarding `COc1ccc(-n2ccnc(NCCc3ccc(Cl)cc3)c2=O)cc1OC`, the survival is inactive: 47%.

As for `CCCCSCCCNC(=O)c1c[nH]c2ccc(S(=O)(=O)Nc3cccc(OC)c3)cc2c1=O`, the survival was inactive: 72%.

`Cc1cc2nc(N(Cc3cccnc3)C(=O)c3ccc(Cl)s3)sc2cc1C`: the survival is active: 0%.

With `Cc1ccc(S(=O)(=O)NCC(c2ccc(N(C)C)cc2)N2CCc3ccccc32)cc1` (stereo not given), the survival was active: -2%.

For the compound `CCC(C)NC(=O)Cn1c(=O)n(-c2ccc(C)c(C)c2)c(=O)c2c(C)c(C(=O)N(CC)CC)sc21` (stereo not given), the survival is inactive: 66%.

For `CC(=O)N1c2ccc(S(=O)(=O)N(C)CC(=O)N(Cc3ccccc3)C(C)C)cc2CC1C` (stereo not given), the survival is inactive: 91%.

Turning to `CC(C)(C)c1ccc(C(=O)N2CCN(CCc3ccccn3)CC2)cc1`, the survival was inactive: 82%.

Consider `O=C(Cc1ccccc1)Nc1nnc2n1CCS2`, for which the survival is inactive: 83%.

Regarding `CCN(Cc1ccccc1)Cc1c(O)ccc2oc(C)c(C(=O)Nc3ccccc3C)c12`, the survival was inactive: 78%.

As for `COc1ccc(NC(=O)Nc2cc(-c3cn4cccnc4n3)ccc2OC)cc1`, the survival was inactive: 105%.

As to `Cc1ccc(CN2c3ccccc3-c3nc(SCC(=O)Nc4c(C)cc(C)cc4C)ncc3S2(=O)=O)cc1`, the survival was inactive: 133%.

Take `CCOc1ccccc1C(=O)N1CC(=O)Nc2ccc(C)cc2C1c1ccccc1` (stereo not given): the survival is inactive: 138%.

In the case of `CCOc1ccccc1NC(=O)N1CCc2c(sc3c2CCCC3)C1c1ccccc1` (stereo not given), the survival is inactive: 75%.

As for `Cc1nn2c(=O)cc(COc3ccc(/C=C(\C#N)C(=O)Nc4ccccc4)cc3Cl)nc2s1`, the survival was inactive: 81%.

Take `O=C(OCc1ccccc1Cl)c1ccc(-c2nnn(Cc3ccc(F)cc3)n2)cc1`: the survival is inactive: 160%.

Take `Brc1ccc2c(c1)NC(c1cccnc1)=NC(c1ccccc1)=N2`: the survival is inactive: 116%.

With `O=c1oc2ccccc2cc1-c1nc2c(s1)CCCC2`, the survival is inactive: 104%.

As for `CCc1cccc(C)c1Nc1c(-c2cccs2)nc2nc(C)cc(C)n12`, the survival is inactive: 75%.

On to `CCOC(=O)c1csc2c1CCC/C2=N/OC(C)=O`, for which the survival is inactive: 107%.

With `CCOc1cc(C(=O)NCc2nc(-c3cccc(C)c3)no2)cc(OCC)c1OCC`, the survival was inactive: 89%.

On to `COC(=O)c1ccccc1NC(=O)c1cc(CN2CCOCC2)on1`, for which the survival is inactive: 99%.

For the compound `CCN(CC)c1ccc(NC(=O)CCS(=O)(=O)c2ccc3c(c2)oc(=O)n3C)c(C)c1`, the survival is inactive: 73%.

Consider `Cc1ccc(CNc2ncnc3onc(C)c23)cc1`, for which the survival was inactive: 136%.

Consider `CC(=C1C(=O)c2ccccc2C1=O)N1CCN(CCO)CC1`, for which the survival is inactive: 114%.

For `O=C(CSc1nc2ccccc2nc1Cc1ccccc1F)Nc1cccc(C(F)(F)F)c1`, the survival was inactive: 57%.

On to `COc1ccc(-c2cc3nc(C)c(CCC(=O)N4CCN(c5ccccc5F)CC4)c(C)n3n2)c(OC)c1`, for which the survival was inactive: 70%.

On to `Cc1ccc(NC(=O)Cn2c(=O)oc3cc(S(=O)(=O)N4CCCCC4)ccc32)c(C)c1`, for which the survival was inactive: 94%.

For the compound `CCC(=O)Nc1ccc(CC)cc1-c1nc2ccccc2n(CC(=O)Nc2ccccc2C)c1=O`, the survival is inactive: 88%.

For `N#Cc1c2c(c(-n3ccnc3)n3c1nc1ccccc13)CCC2`, the survival is inactive: 105%.

Turning to `COc1ccc(-c2onc(C)c2C)cc1S(=O)(=O)Nc1cc(Cl)ccc1C`, the survival was inactive: 82%.

Turning to `CC(C)OCCCn1c(=O)c2ccccc2n2c(-c3cc(Cl)ccc3O)nnc12`, the survival is inactive: 94%.

On to `COCC(=O)NC1CCN(Cc2nnnn2Cc2ccc3c(c2)OCO3)CC1`, for which the survival is inactive: 128%.

On to `NC(Cc1c[nH]c2ccccc12)C(=O)NCc1ccccc1` (stereo not given), for which the survival is inactive: 104%.

As to `CCCOc1ccc(C2c3c(-c4ccccc4O)n[nH]c3C(=O)N2Cc2cccnc2)cc1` (stereo not given), the survival was active: 3%.

With `COc1cc2c(cc1OC)C(COc1ccc(F)cc1)N(C(=O)Cc1ccccc1)CC2` (stereo not given), the survival was inactive: 72%.

Turning to `CCOc1ccc(-c2cc(C(=O)NCCCOC)c3c(-c4ccc(CC)cc4)[nH]nc3n2)cc1`, the survival is inactive: 71%.

For `COc1cc(C(=O)Nc2ccc(-c3nc4ccccc4o3)c(O)c2)cc(OC)c1OC`, the survival is inactive: 129%.

In the case of `Cc1cn2c(=O)cc(COC(=O)c3ccc(NC(=O)COc4ccc(C)c(C)c4)cc3)nc2s1`, the survival was inactive: 63%.

`CCc1ccccc1NC(=O)CSc1nnc(COc2ccccc2Cl)o1`: the survival is inactive: 69%.

In the case of `CCc1ccccc1NC(=O)CN1C(=O)c2cccnc2Sc2ccccc21`, the survival was inactive: 117%.

Turning to `CCn1c(=O)c2sccc2n2c(CCC(=O)Nc3ccc(OC)cc3OC)nnc12`, the survival was inactive: 68%.

Regarding `O=c1c2ccccc2n(Cc2c(F)cccc2Cl)c(=O)n1Cc1ccccc1`, the survival was inactive: 40%.

`COCc1nc2ccccc2n1Cc1cccc(C)c1`: the survival was inactive: 81%.

`CCn1c(=N)c(C(=O)NCC2CCCO2)cc2c(=O)n3cc(C)ccc3nc21` (stereo not given): the survival is inactive: 84%.

With `O=S(=O)(NCC(c1ccccc1)N1CCc2ccccc21)c1ccccc1` (stereo not given), the survival is inactive: 83%.

Consider `CC(NC(=O)CSc1nc(-c2cccc(Cl)c2)nc2cc(=O)[nH]n12)c1nc2ccccc2n1C` (stereo not given), for which the survival is inactive: 54%.

In the case of `COc1ccc(-c2nc3ccccc3s2)cc1NC(=O)c1cccc([N+](=O)[O-])c1C`, the survival is inactive: 65%.

As for `NC(=O)NC(=O)c1nc2nonc2[nH]c1=O`, the survival was inactive: 101%.

Turning to `Cc1ccc(Cn2c(CNC(=O)Cc3cccc([N+](=O)[O-])c3)nc3cccnc32)cc1`, the survival is inactive: 67%.

Turning to `CCCOc1ccc(NC(=O)CC2C(=O)N(c3ccc(F)cc3)C(=O)N2CC(C)C)cc1` (stereo not given), the survival is inactive: 75%.

Regarding `O=C(NCc1cccs1)C1CCN(c2ccc(S(=O)(=O)N3CCOCC3)cc2Cl)CC1`, the survival is inactive: 102%.

Regarding `CCn1c(=O)cc(OCC(=O)N2CCN(c3cccc(Cl)c3)CC2)c2ccccc21`, the survival is inactive: 127%.

With `Cc1ccc(S(=O)(=O)N2CCN(Cc3ccc4c(c3)OCO4)CC2)cc1`, the survival was inactive: 64%.

In the case of `CCc1ccc(-c2cc(C)no2)cc1S(=O)(=O)Nc1cc(OC)c(OC)c(OC)c1`, the survival is inactive: 83%.

As to `COc1ccc(C2=C(C)C(=NCc3ccc(OC(C)C)cc3)NS2(=O)=O)cc1`, the survival is inactive: 86%.

Take `Cc1ccc2c(c1)sc1nc(=O)n(-c3ccc(Cl)c(Cl)c3)c(=O)n12`: the survival was active: -4%.

Consider `NC(=O)c1cc(N)ccc1N1CCOCC1`, for which the survival was inactive: 111%.

With `COc1cc(C(=O)N2CCC(c3nc4ccccc4s3)CC2)cc(OC)c1OC`, the survival was inactive: 84%.

With `CCCCOc1ccc(CNC(=O)C2CCCN(c3nnc(-n4c(C)ccc4C)s3)C2)cc1` (stereo not given), the survival was inactive: 70%.

For the compound `CC(=O)Nc1ccc(S(=O)(=O)Nc2cccc(-c3ccc(N4CCCCCC4)nn3)c2)cc1`, the survival was inactive: 59%.

Turning to `O=C(NC1CCN(C(=O)Nc2cccc(Cl)c2)CC1)C1CCCCC1`, the survival was inactive: 99%.

Regarding `CC(C)(C)NC(=O)CSc1nc(O)cc(=O)[nH]1`, the survival was inactive: 106%.

Consider `COc1ccc(C(=O)NCCn2cc(SCC(=O)Nc3ccc(F)cc3)c3ccccc32)cc1`, for which the survival was inactive: 79%.

Regarding `CCNc1ccc(-c2nc(-c3ccncc3)no2)cc1[N+](=O)[O-]`, the survival was inactive: 93%.

On to `CCn1cc(C(=O)NCCc2ccc(Cl)cc2)c(=O)c2cc(S(=O)(=O)N3CCCCCC3)ccc21`, for which the survival is inactive: 80%.

On to `Cc1nc(-c2ccc(S(=O)(=O)NCc3ccc(OC(C)C)cc3)cc2)co1`, for which the survival was inactive: 69%.
